Experimental data from PubChem BioAssay AID234 (DTP/NCI, 2004).
Records with an inconclusive call do not appear. A number of entries come with more than one value. The other results are left out here. An entry can have further records. The records of an entry are repeats (runs, samples, wells, individuals or studies).

System: C3AKF1 mice, hamster liver cystadenocarcinoma s.c., tumor weight T/C
Assay: NCI In Vivo Anticancer Drug Screen. Data for tumor model Cystadenocarcinoma, Liver (No. 1) (Hamster) (subcutaneous) in C3AKF1 (CHKRF1) mice
Details: endpoint: mean tumor weight, schedule: Q01DX010 (ip), higher = larger tumour
Protocol: The antitumor activity of compounds was measured in mice bearing transplantable tumors. Survival or tumor size were measured and the results are expressed as the measurement made in the treated group (T) divided by the measurement made in the vehicle treated control group (C). The tumor model used in this assay is Cystadenocarcinoma, Liver (No. 1) (Hamster) (subcutaneous) in C3AKF1 (CHKRF1) mice

[1] = dose: 30.0 mg/kg/injection, vehicle: carboxymethylcellulose (CMC)
[2] = dose: 200.0 mg/kg/injection, vehicle: carboxymethylcellulose (CMC)

Q: How did the T/C (dose: 15.0 mg/kg/injection, vehicle: carboxymethylcellulose (CMC)) turn out when `CN(N=O)C(N)=O` was run?
A: 59 % of control and 90 % of control

Q: What about the T/C [1] of the same compound?
A: 65 % of control and 106 % of control

Q: For `Cn1cnc([N+](=O)[O-])c1Sc1nc(N)nc2c1ncn2C1OC(CO)C(O)C1O` (stereo unspecified), which T/C (dose: 7.0 mg/kg/injection, vehicle: carboxymethylcellulose (CMC)) is on record?
A: 74 % of control and 113 % of control

Q: Which T/C (dose: 100.0 mg/kg/injection, vehicle: carboxymethylcellulose (CMC)) does the source give for `Nc1ncnc2c1ncn2C1CCCO1` (stereo unspecified) here?
A: 62 % of control and 94 % of control

Q: For `CCCC(=O)NC1=C(N2CC2)C(=O)C(NC(=O)CCC)=C(N2CC2)C1=O`, which T/C (dose: 1.1 mg/kg/injection, vehicle: saline) is on record?
A: 36 % of control and 67 % of control

Q: For `CCCn1cnc2c(SCc3ccccc3Cl)nc(N)nc21`, which T/C [2] is on record?
A: 39 % of control and 112 % of control

Q: With `Fc1ccc(CSc2ncnc3c2ncn3C2CCCCO2)cc1` (stereo unspecified) as the compound, how does the T/C (dose: 180.0 mg/kg/injection, vehicle: carboxymethylcellulose (CMC)) read?
A: 61 % of control and 105 % of control

Q: For `Clc1ncnc2c1ncn2C1CCCO1` (stereo unspecified), which T/C [2] is on record?
A: 60 % of control and 104 % of control

Q: With `CCCCSc1nc(N)nc2c1ncn2CC(C)CC` (stereo unspecified) as the compound, how does the T/C (dose: 500.0 mg/kg/injection, vehicle: carboxymethylcellulose (CMC)) read?
A: 60 % of control and 92 % of control

Q: What does the source list for `O=[N+]([O-])c1ccccc1CSc1ncnc2nc[nH]c12`?
A: T/C (dose: 62.0 mg/kg/injection, vehicle: carboxymethylcellulose (CMC)): 64 % of control and 93 % of control; T/C (dose: 125.0 mg/kg/injection, vehicle: carboxymethylcellulose (CMC)): 33 % of control and 94 % of control

Q: How did the T/C [2] turn out when `ClCCn1cnc2c(SCc3ccccc3Cl)ncnc21` was run?
A: 80 % of control and 114 % of control

Q: Which T/C (dose: 50.0 mg/kg/injection, vehicle: carboxymethylcellulose (CMC)) does the source give for `Nc1nc(SCc2ccccc2Cl)c2ncn(C3OC(CO)C(O)C3O)c2n1` (stereo unspecified) here?
A: 79 % of control and 121 % of control

Q: `CCn1cnc2c(=S)nc(N)[nH]c21` was tested. Which T/C [1] did it give?
A: 37 % of control and 89 % of control

Q: With `C/C=C1\CN(C)[C@H]2Cc3c([nH]c4ccccc34)[C@@H](c3cc4[nH]c5c(c4cc3OC)CCN3C[C@H]4C[C@H](CC)[C@H]3[C@@]5(C(=O)OC)C4)C[C@H]1C2C(=O)OC` (stereo partly specified) as the compound, how does the T/C (dose: 13.0 mg/kg/injection, vehicle: water) read?
A: 67 % of control and 100 % of control

Q: What about the T/C (dose: 20.0 mg/kg/injection, vehicle: water) of the same compound?
A: 53 % of control and 95 % of control
